Experimental data reported in patent publication US20210238260.

How the values were obtained:
[1] = target: antithrombin III (plasma purified human AT-III, Molecular Innovations); test: ratio of K0.5 to recombinant WT FIXa (Catalyst Biosciences WT); AT-III/UFH inhibition assay
[2] = target: Factor X (FX), active site titrated and DFP/EGR-cmk treated zymogen, P00742
[3] = target: plasma purified human AT-III (antithrombin III)
[4] = target: plasma purified human AT-III (antithrombin III), in complex with full-length unfractionated heparin
[5] = target: plasma purified human antithrombin III (AT-III), in complex with unfractionated heparin (UFH); test: same assay; K0.5 ratio to Catalyst Biosciences WT FIXa
[6] = target: plasma purified human AT-III (antithrombin III) in complex with unfractionated heparin; test: ratio of K0.5 to Catalyst Biosciences WT FIXa; AT-III/UFH inhibition assay

B1: FIXa D85N/D203N/F205T (protein)
chain 1: YNSGKLEEFVQGNLERECMEEKCSFEEAREVFENTERTTEFWKQYVDGDQCESNPCLNGGSCKDDINSYECWCPFGFEGKNCELNVTCNIKNGRCEQFCKNSADNKVVCSCTEGYRLAENQKSCEPAVPFPCGRVSVSQTSKLTR
chain 2: [no letters for about 250 residues with changes]
Question: With B1 as the protein, how does the K0.5-mut/K0.5-wt [1] read?
Answer: Its K0.5-mut/K0.5-wt is 30.3.

Question: What about the KM (Factor X, P00742) of the same protein?
Answer: The KM was 0.0406 µM.

Question: What about the KM [2] of the same protein?
Answer: Its KM is 0.0406 µM.

Question: And the “% of WT kcat/KM” value (Factor X (FX), P00742)?
Answer: The value was 64%.

Question: What about the kcat (Factor X (FX), P00742) of the same protein?
Answer: Its kcat is 1.2 s⁻¹.

Question: And the kcat/KM (Factor X (FX), P00742)?
Answer: Its kcat/KM is 3e+07 M⁻¹ s⁻¹.

B2: FIXa D85N/K228N (protein)
chain 1: YNSGKLEEFVQGNLERECMEEKCSFEEAREVFENTERTTEFWKQYVDGDQCESNPCLNGGSCKDDINSYECWCPFGFEGKNCELNVTCNIKNGRCEQFCKNSADNKVVCSCTEGYRLAENQKSCEPAVPFPCGRVSVSQTSKLTR
chain 2: [no letters for about 250 residues with changes]
Question: Which K0.5-mut/K0.5-wt [1] does the source give for B2 here?
Answer: The K0.5-mut/K0.5-wt was 1.7.

Question: And the KM (Factor X, P00742)?
Answer: The KM was 0.0601 µM.

Question: And the KM [2]?
Answer: Its KM is 0.0601 µM.

Question: What about the “% of WT kcat/KM” value (Factor X (FX), P00742) of the same protein?
Answer: Its value is 101%.

Question: And the kcat (Factor X (FX), P00742)?
Answer: Its kcat is 2.7 s⁻¹.

Question: And the kcat/KM (Factor X (FX), P00742)?
Answer: Its kcat/KM is 4.6e+07 M⁻¹ s⁻¹.

B3: FIXa A103N/N105S/K228N (protein)
chain 1: YNSGKLEEFVQGNLERECMEEKCSFEEAREVFENTERTTEFWKQYVDGDQCESNPCLNGGSCKDDINSYECWCPFGFEGKNCELDVTCNIKNGRCEQFCKNSNDSKVVCSCTEGYRLAENQKSCEPAVPFPCGRVSVSQTSKLTR
chain 2: [no letters for about 250 residues with changes]
Question: How did the K0.5-mut/K0.5-wt [1] turn out when B3 was run?
Answer: Its K0.5-mut/K0.5-wt is 2.4.

Question: What about the KM (Factor X, P00742) of the same protein?
Answer: The KM was 0.0765 µM.

Question: What about the KM [2] of the same protein?
Answer: The KM was 0.0765 µM.

Question: And the “% of WT kcat/KM” value (Factor X (FX), P00742)?
Answer: Its value is 63%.

Question: What about the kcat (Factor X (FX), P00742) of the same protein?
Answer: The kcat was 2.1 s⁻¹.

Question: And the kcat/KM (Factor X (FX), P00742)?
Answer: The kcat/KM was 2.9e+07 M⁻¹ s⁻¹.

B4: FIXa D85N/I251S (protein)
chain 1: YNSGKLEEFVQGNLERECMEEKCSFEEAREVFENTERTTEFWKQYVDGDQCESNPCLNGGSCKDDINSYECWCPFGFEGKNCELNVTCNIKNGRCEQFCKNSADNKVVCSCTEGYRLAENQKSCEPAVPFPCGRVSVSQTSKLTR
chain 2: [no letters for about 250 residues with changes]
Question: What does the source list for B4?
Answer: K0.5-mut/K0.5-wt [1]: 1; % of WT kcat/KM (Factor X, P00742): 124%; KM (Factor X, P00742): 0.0515 µM; kcat/KM (Factor X, P00742): 5.6e+07 M⁻¹ s⁻¹; K0.5 [3]: 28.3 nM; K0.5-mut/K0.5-wt [3]: 1; KM [2]: 0.0515 µM; kcat (Factor X (FX), P00742): 2.8 s⁻¹

B5: FIXa D85N/D104N/K106S/I251S (protein)
chain 1: YNSGKLEEFVQGNLERECMEEKCSFEEAREVFENTERTTEFWKQYVDGDQCESNPCLNGGSCKDDINSYECWCPFGFEGKNCELNVTCNIKNGRCEQFCKNSANNSVVCSCTEGYRLAENQKSCEPAVPFPCGRVSVSQTSKLTR
chain 2: [no letters for about 250 residues]
Question: Which “% of WT kcat/KM” value (Factor X, P00742) does the source give for B5 here?
Answer: The value was 75%.

Question: And the KM (Factor X, P00742)?
Answer: Its KM is 0.0464 µM.

Question: What about the kcat/KM (Factor X, P00742) of the same protein?
Answer: Its kcat/KM is 3.3e+07 M⁻¹ s⁻¹.

Question: What about the K0.5-mut/K0.5-wt [4] of the same protein?
Answer: The K0.5-mut/K0.5-wt was 1.4.

Question: And the K0.5 [3]?
Answer: Its K0.5 is 32.1 nM.

Question: What about the K0.5-mut/K0.5-wt [3] of the same protein?
Answer: Its K0.5-mut/K0.5-wt is 1.1.

Question: What about the KM [2] of the same protein?
Answer: Its KM is 0.0464 µM.

Question: And the kcat (Factor X (FX), P00742)?
Answer: The kcat was 1.5 s⁻¹.

B6: FIXa-D85N/D203N/F205T (protein)
chain 1: YNSGKLEEFVQGNLERECMEEKCSFEEAREVFENTERTTEFWKQYVDGDQCESNPCLNGGSCKDDINSYECWCPFGFEGKNCELNVTCNIKNGRCEQFCKNSADNKVVCSCTEGYRLAENQKSCEPAVPFPCGRVSVSQTSKLTR
chain 2: [no letters for about 250 residues with changes]
Question: For B6, which “% of WT kcat/KM” value (Factor X (FX), P00742) is on record?
Answer: Its value is 66%.

Question: And the kcat (Factor X (FX), P00742)?
Answer: Its kcat is 1.2 s⁻¹.

Question: And the kcat/KM (Factor X (FX), P00742)?
Answer: Its kcat/KM is 3e+07 M⁻¹ s⁻¹.

Question: What about the K0.5-mut/K0.5-wt [5] of the same protein?
Answer: Its K0.5-mut/K0.5-wt is 30.3.

B7: FIXa-D85N/K228N (protein)
chain 1: YNSGKLEEFVQGNLERECMEEKCSFEEAREVFENTERTTEFWKQYVDGDQCESNPCLNGGSCKDDINSYECWCPFGFEGKNCELNVTCNIKNGRCEQFCKNSADNKVVCSCTEGYRLAENQKSCEPAVPFPCGRVSVSQTSKLTR
chain 2: [no letters for about 250 residues with changes]
Question: For B7, which “% of WT kcat/KM” value (Factor X (FX), P00742) is on record?
Answer: Its value is 104%.

Question: And the kcat (Factor X (FX), P00742)?
Answer: Its kcat is 2.7 s⁻¹.

Question: What about the kcat/KM (Factor X (FX), P00742) of the same protein?
Answer: Its kcat/KM is 4.6e+07 M⁻¹ s⁻¹.

Question: And the K0.5-mut/K0.5-wt [5]?
Answer: Its K0.5-mut/K0.5-wt is 1.7.

B8: FIXa-A103N/N105S/K228N (protein)
chain 1: YNSGKLEEFVQGNLERECMEEKCSFEEAREVFENTERTTEFWKQYVDGDQCESNPCLNGGSCKDDINSYECWCPFGFEGKNCELDVTCNIKNGRCEQFCKNSNDSKVVCSCTEGYRLAENQKSCEPAVPFPCGRVSVSQTSKLTR
chain 2: [no letters for about 250 residues with changes]
Question: Which “% of WT kcat/KM” value (Factor X (FX), P00742) does the source give for B8 here?
Answer: Its value is 64%.

Question: And the kcat (Factor X (FX), P00742)?
Answer: Its kcat is 2.1 s⁻¹.

Question: And the kcat/KM (Factor X (FX), P00742)?
Answer: The kcat/KM was 2.9e+07 M⁻¹ s⁻¹.

Question: What about the K0.5-mut/K0.5-wt [5] of the same protein?
Answer: The K0.5-mut/K0.5-wt was 2.4.

B9: FIXa-D85N/I251S (protein)
chain 1: YNSGKLEEFVQGNLERECMEEKCSFEEAREVFENTERTTEFWKQYVDGDQCESNPCLNGGSCKDDINSYECWCPFGFEGKNCELNVTCNIKNGRCEQFCKNSADNKVVCSCTEGYRLAENQKSCEPAVPFPCGRVSVSQTSKLTR
chain 2: [no letters for about 250 residues with changes]
Question: B9 was tested. Which “% of WT kcat/KM” value (Factor X (FX), P00742) did it give?
Answer: The value was 121%.

Question: And the kcat (Factor X (FX), P00742)?
Answer: The kcat was 2.8 s⁻¹.

Question: What about the kcat/KM (Factor X (FX), P00742) of the same protein?
Answer: Its kcat/KM is 5.6e+07 M⁻¹ s⁻¹.

Question: And the K0.5-mut/K0.5-wt [5]?
Answer: Its K0.5-mut/K0.5-wt is 1.

B10: FIXa-D85N/D104N/K106S/I251S (protein)
chain 1: YNSGKLEEFVQGNLERECMEEKCSFEEAREVFENTERTTEFWKQYVDGDQCESNPCLNGGSCKDDINSYECWCPFGFEGKNCELNVTCNIKNGRCEQFCKNSANNSVVCSCTEGYRLAENQKSCEPAVPFPCGRVSVSQTSKLTR
chain 2: [no letters for about 250 residues]
Question: What does the source list for B10?
Answer: % of WT kcat/KM (Factor X (FX), P00742): 73%; kcat (Factor X (FX), P00742): 1.5 s⁻¹; kcat/KM (Factor X (FX), P00742): 3.3e+07 M⁻¹ s⁻¹; K0.5-mut/K0.5-wt [6]: 1.4

B11: FIXa-A103N/N105S/I251S (protein)
chain 1: YNSGKLEEFVQGNLERECMEEKCSFEEAREVFENTERTTEFWKQYVDGDQCESNPCLNGGSCKDDINSYECWCPFGFEGKNCELDVTCNIKNGRCEQFCKNSNDSKVVCSCTEGYRLAENQKSCEPAVPFPCGRVSVSQTSKLTR
chain 2: [no letters for about 250 residues with changes]
Question: B11 was tested. Which “% of WT kcat/KM” value (Factor X (FX), P00742) did it give?
Answer: Its value is 84%.

Question: And the kcat (Factor X (FX), P00742)?
Answer: Its kcat is 2.9 s⁻¹.

Question: And the kcat/KM (Factor X (FX), P00742)?
Answer: The kcat/KM was 3.9e+07 M⁻¹ s⁻¹.

Question: What about the K0.5-mut/K0.5-wt [6] of the same protein?
Answer: Its K0.5-mut/K0.5-wt is 2.2.

B12: FIXa-D104N/K106S/I251S (protein)
chain 1: YNSGKLEEFVQGNLERECMEEKCSFEEAREVFENTERTTEFWKQYVDGDQCESNPCLNGGSCKDDINSYECWCPFGFEGKNCELDVTCNIKNGRCEQFCKNSANNSVVCSCTEGYRLAENQKSCEPAVPFPCGRVSVSQTSKLTR
chain 2: [no letters for about 250 residues with changes]
Question: For B12, which “% of WT kcat/KM” value (Factor X (FX), P00742) is on record?
Answer: The value was 64%.

Question: What about the kcat (Factor X (FX), P00742) of the same protein?
Answer: Its kcat is 2.9 s⁻¹.

Question: And the kcat/KM (Factor X (FX), P00742)?
Answer: Its kcat/KM is 2.9e+07 M⁻¹ s⁻¹.

Question: What about the K0.5-mut/K0.5-wt [6] of the same protein?
Answer: Its K0.5-mut/K0.5-wt is 1.6.
